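Test compounds were applied to cells in 96-well plates for 48 hours at 5 doses. At the GI50, growth is halved.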 For part of its entries the source gives two or more results. They are shown here; other results are not. An entry can have further records. Values that stand side by side repeat one measurement (runs, samples, wells, individuals or studies). Brackets tell where a record comes from. Letters hold for one entry only.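 TGI marks complete inhibition of growth.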
Assays:
Assay in all cases: NCI tumour cell line growth inhibition, 48 h
NCI-H23 lung = tested on: NCI-H23 lung
HCC-2998 colon = tested on: HCC-2998 colon
UO-31 renal = tested on: UO-31 renal
SF-539 CNS = tested on: SF-539 CNS
EKVX NSCLC = tested on: EKVX NSCLC
CAKI-1 renal = tested on: CAKI-1 renal
SK-MEL-2 melanoma = tested on: SK-MEL-2 melanoma
CCRF-CEM leukemia = tested on: CCRF-CEM leukemia
DU-145 prostate = tested on: DU-145 prostate
ACHN renal = tested on: ACHN renal
COLO 205 colon = tested on: COLO 205 colon
MDA-MB-231 breast = tested on: MDA-MB-231 breast
NCI-H460 lung = tested on: NCI-H460 lung
PC-3 prostate = tested on: PC-3 prostate
LOX IMVI melanoma = tested on: LOX IMVI melanoma
T-47D breast = tested on: T-47D breast
SK-OV-3 ovarian = tested on: SK-OV-3 ovarian
A549 NSCLC = tested on: A549 NSCLC
IGROV1 ovarian = tested on: IGROV1 ovarian
RPMI-8226 leukemia = tested on: RPMI-8226 leukemia
SR leukemia = tested on: SR leukemia
SF-268 CNS = tested on: SF-268 CNS
KM12 colon = tested on: KM12 colon
BT-549 breast = tested on: BT-549 breast
786-0 renal = tested on: 786-0 renal
U251 CNS = tested on: U251 CNS
UACC-257 melanoma = tested on: UACC-257 melanoma
NCI-H226 lung = tested on: NCI-H226 lung
M14 melanoma = tested on: M14 melanoma
SK-MEL-5 melanoma = tested on: SK-MEL-5 melanoma
RXF 393 renal = tested on: RXF 393 renal
MOLT-4 leukemia = tested on: MOLT-4 leukemia
SF-295 CNS = tested on: SF-295 CNS
MDA-MB-435 = tested on: MDA-MB-435
OVCAR-5 ovarian = tested on: OVCAR-5 ovarian
HCT-15 colon = tested on: HCT-15 colon
HL-60(TB) leukemia = tested on: HL-60(TB) leukemia
UACC-62 melanoma = tested on: UACC-62 melanoma
SW-620 colon = tested on: SW-620 colon
A498 renal = tested on: A498 renal
SNB-19 CNS = tested on: SNB-19 CNS
HT29 colon = tested on: HT29 colon
HCT-116 colon = tested on: HCT-116 colon
SN12C renal = tested on: SN12C renal
HOP-62 NSCLC = tested on: HOP-62 NSCLC
NCI-H522 lung = tested on: NCI-H522 lung
OVCAR-8 ovarian = tested on: OVCAR-8 ovarian
MCF7 breast = tested on: MCF7 breast

How did the GI50 (NCI-H23 lung) turn out when `COc1cc(C)c(-c2ccc(OC)c(=O)cc2C)c(OC)c1OC` was run?
The GI50 was 4.03 µM [sample A, 1 test] and > 100 µM [sample B, 1 test].

What about the GI50 (HCC-2998 colon) of the same compound?
Its GI50 is 2.82 µM [sample A, 1 test] and > 100 µM [sample B, 1 test].

And the GI50 (UO-31 renal)?
Its GI50 is 6.85 µM [sample A, 1 test] and > 100 µM [sample B, 1 test].

And the GI50 (SF-539 CNS)?
Its GI50 is 2.26 µM [sample A, 1 test] and > 100 µM [sample B, 1 test].

What about the GI50 (EKVX NSCLC) of the same compound?
The GI50 was 6.56 µM [sample A, 1 test] and > 100 µM [sample B, 1 test].

What about the GI50 (CAKI-1 renal) of the same compound?
Its GI50 is 943 nM [sample A, 1 test] and > 100 µM [sample B, 1 test].

And the GI50 (SK-MEL-2 melanoma)?
Its GI50 is 887 nM [sample A, 1 test] and > 100 µM [sample B, 1 test].

What about the TGI (SK-MEL-2 melanoma) of the same compound?
Its TGI is 6.65 µM [sample A, 1 test] and > 100 µM [sample B, 1 test].

What about the GI50 (CCRF-CEM leukemia) of the same compound?
The GI50 was 1.96 µM [sample A, 1 test] and > 100 µM [sample B, 1 test].

What about the GI50 (DU-145 prostate) of the same compound?
Its GI50 is 3.53 µM [sample A, 1 test] and > 100 µM [sample B, 1 test].

And the GI50 (ACHN renal)?
Its GI50 is 5.35 µM [sample A, 1 test] and > 100 µM [sample B, 1 test].

And the GI50 (COLO 205 colon)?
Its GI50 is 1.73 µM [sample A, 1 test] and > 100 µM [sample B, 1 test].

And the TGI (COLO 205 colon)?
Its TGI is 4.45 µM [sample A, 1 test] and > 100 µM [sample B, 1 test].

What about the GI50 (MDA-MB-231 breast) of the same compound?
Its GI50 is 2.57 µM [sample A, 1 test] and > 100 µM [sample B, 1 test].

And the GI50 (NCI-H460 lung)?
The GI50 was 2.83 µM [sample A, 1 test] and > 100 µM [sample B, 1 test].

What about the GI50 (PC-3 prostate) of the same compound?
The GI50 was 2.29 µM [sample A, 1 test] and > 100 µM [sample B, 1 test].

What about the GI50 (LOX IMVI melanoma) of the same compound?
Its GI50 is 2.05 µM [sample A, 1 test] and > 100 µM [sample B, 1 test].

What about the GI50 (T-47D breast) of the same compound?
The GI50 was 7.02 µM [sample A, 1 test] and > 100 µM [sample B, 1 test].

What about the GI50 (SK-OV-3 ovarian) of the same compound?
Its GI50 is 2.59 µM [sample A, 1 test] and > 100 µM [sample B, 1 test].

And the GI50 (A549 NSCLC)?
The GI50 was 3.78 µM [sample A, 1 test] and > 100 µM [sample B, 1 test].

And the GI50 (IGROV1 ovarian)?
Its GI50 is 4.26 µM [sample A, 1 test] and > 100 µM [sample B, 1 test].

And the GI50 (RPMI-8226 leukemia)?
Its GI50 is 4.12 µM [sample A, 1 test] and > 100 µM [sample B, 1 test].

And the GI50 (SR leukemia)?
Its GI50 is 362 nM [sample A, 1 test] and > 100 µM [sample B, 1 test].

What about the GI50 (SF-268 CNS) of the same compound?
Its GI50 is 5.46 µM [sample A, 1 test] and > 100 µM [sample B, 1 test].

What about the GI50 (KM12 colon) of the same compound?
Its GI50 is 1.61 µM [sample A, 1 test] and > 100 µM [sample B, 1 test].

And the GI50 (BT-549 breast)?
The GI50 was 2.03 µM [sample A, 1 test] and > 100 µM [sample B, 1 test].

And the TGI (BT-549 breast)?
Its TGI is 6.57 µM [sample A, 1 test] and > 100 µM [sample B, 1 test].

And the GI50 (786-0 renal)?
The GI50 was 4.49 µM [sample A, 1 test] and > 100 µM [sample B, 1 test].

And the GI50 (U251 CNS)?
Its GI50 is 2.97 µM [sample A, 1 test] and > 100 µM [sample B, 1 test].

What about the GI50 (UACC-257 melanoma) of the same compound?
Its GI50 is 7.78 µM [sample A, 1 test] and > 100 µM [sample B, 1 test].

And the GI50 (NCI-H226 lung)?
The GI50 was 3.92 µM [sample A, 1 test] and > 100 µM [sample B, 1 test].

What about the GI50 (M14 melanoma) of the same compound?
Its GI50 is 849 nM [sample A, 1 test] and > 100 µM [sample B, 1 test].

What about the GI50 (SK-MEL-5 melanoma) of the same compound?
Its GI50 is 3.13 µM [sample A, 1 test] and > 100 µM [sample B, 1 test].

And the GI50 (RXF 393 renal)?
The GI50 was 1.96 µM [sample A, 1 test] and > 100 µM [sample B, 1 test].

What about the GI50 (MOLT-4 leukemia) of the same compound?
The GI50 was 2.64 µM [sample A, 1 test] and > 100 µM [sample B, 1 test].

What about the GI50 (SF-295 CNS) of the same compound?
The GI50 was 1.73 µM [sample A, 1 test] and > 100 µM [sample B, 1 test].

What about the GI50 (MDA-MB-435) of the same compound?
The GI50 was 270 nM [sample A, 1 test] and 72.2 µM [sample B, 1 test].

And the TGI (MDA-MB-435)?
Its TGI is 741 nM [sample A, 1 test] and > 100 µM [sample B, 1 test].

What about the GI50 (OVCAR-5 ovarian) of the same compound?
Its GI50 is 4.34 µM [sample A, 1 test] and > 100 µM [sample B, 1 test].

What about the GI50 (HCT-15 colon) of the same compound?
Its GI50 is 682 nM [sample A, 1 test] and > 100 µM [sample B, 1 test].

And the GI50 (HL-60(TB) leukemia)?
Its GI50 is 684 nM [sample A, 1 test] and > 100 µM [sample B, 1 test].

What about the TGI (HL-60(TB) leukemia) of the same compound?
Its TGI is 7.91 µM [sample A, 1 test] and > 100 µM [sample B, 1 test].

What about the GI50 (UACC-62 melanoma) of the same compound?
The GI50 was 928 nM [sample A, 1 test] and > 100 µM [sample B, 1 test].

What about the GI50 (SW-620 colon) of the same compound?
The GI50 was 1.24 µM [sample A, 1 test] and > 100 µM [sample B, 1 test].

And the GI50 (A498 renal)?
The GI50 was 787 nM [sample A, 1 test] and > 100 µM [sample B, 1 test].

And the TGI (A498 renal)?
Its TGI is 4.54 µM [sample A, 1 test] and > 100 µM [sample B, 1 test].

What about the GI50 (SNB-19 CNS) of the same compound?
The GI50 was 2.96 µM [sample A, 1 test] and > 100 µM [sample B, 1 test].

What about the GI50 (HT29 colon) of the same compound?
Its GI50 is 1.87 µM [sample A, 1 test] and > 100 µM [sample B, 1 test].

And the TGI (HT29 colon)?
The TGI was 9.55 µM [sample A, 1 test] and > 100 µM [sample B, 1 test].

What about the GI50 (HCT-116 colon) of the same compound?
Its GI50 is 1.93 µM [sample A, 1 test] and > 100 µM [sample B, 1 test].

What about the GI50 (SN12C renal) of the same compound?
Its GI50 is 3.49 µM [sample A, 1 test] and > 100 µM [sample B, 1 test].

And the GI50 (HOP-62 NSCLC)?
The GI50 was 3.79 µM [sample A, 1 test] and > 100 µM [sample B, 1 test].

And the GI50 (NCI-H522 lung)?
Its GI50 is 1.86 µM [sample A, 1 test] and > 100 µM [sample B, 1 test].

What about the TGI (NCI-H522 lung) of the same compound?
Its TGI is 5.35 µM [sample A, 1 test] and > 100 µM [sample B, 1 test].

What about the GI50 (OVCAR-8 ovarian) of the same compound?
Its GI50 is 3.38 µM [sample A, 1 test] and > 100 µM [sample B, 1 test].

And the GI50 (MCF7 breast)?
The GI50 was 785 nM [sample A, 1 test] and > 100 µM [sample B, 1 test].

Source: PubChem BioAssay (NCI)
